# From PubChem BioAssay AID463173 (ICCB-Longwood Screening Facility, Harvard Medical School, 2010)
# Hit rate of the full screen: of about 52,000 compounds, about 1,700 (3.3%) were called active. Cut-off read from the data, not from the text of the source: active = survival mostly below about 52% (no sharp cut-off); inactive = mostly above about 56%. Some of the results follow.
# Tested on: Wild type
# Experiment: growth inhibition of S. aureus wild type versus tarO mutant, primary screen, teichoic acid synthesis inhibitors, RN4220, OD600 (AID 463173)
# Settings: S. aureus RN4220 wild type/DeltatarO growth, OD600, 18 h, stronger effect = lower value, screened at 18.75 µg/mL (by protocol)
row,SMILES,survival
1,CCCCCOc1ccc(C(=O)CCN2CCOCC2)cc1,inactive: 35%
2,O=C(Cn1cccc1C(=O)c1ccccc1)NCc1ccc(Cl)cc1,inactive: 89%
3,COc1ccc(NC(=O)CNC(=O)Cn2ccc3ccccc3c2=O)c(OC)c1,inactive: 85%
4,Nc1c(C(=O)N2CCOCC2)sc2nc3c(cc12)CCCC3,inactive: 99%
5,CCCN1CCN(CCCNC(=O)c2cc3c(=O)[nH]c4ccccc4c3s2)CC1,inactive: 86%
6,CC1CCC2C(C1)Nc1c(C(=O)O)cccc1C2(C)C (centres undefined),inactive: 92%
7,Cc1ccc(CNC(=O)c2cnc(N3CCCC3)nc2C)cc1,inactive: 65%
8,CN(C(=O)CSc1nc2ccc(NC(=O)c3ccco3)cc2s1)c1ccccc1,inactive: 69%
9,COc1cccc(OC(=O)N2CCOCC2)c1,inactive: 124%
10,CCc1ccccc1NC(=O)c1nnn(CC(=O)Nc2c(C)cc(C)cc2C)c1N,inactive: 98%
11,N#Cc1ccccc1NC(=O)CSC1=NCCS1,inactive: 105%
12,Cc1cc(C)c2c(NC(=O)c3ccccc3Cl)c(C(=O)Nc3ccc(C)c(C)c3)sc2n1,inactive: 64%
13,COc1cc(CNCCSc2nnnn2C)ccc1OCc1ccccc1,inactive: 84%
14,CCC1=Nc2cc(C(=O)NC3CCCC3)ccc2Sc2ccc(Cl)cc21,inactive: 77%
15,Cc1ccc2nc3sc(C(=O)Nc4ccc(F)cc4)cc3cc2c1,inactive: 32%
16,CCOC(=O)c1cc(S(=O)(=O)N2CCN(c3cccc(C)c3)C(C)C2)[nH]n1 (centres undefined),inactive: 76%
17,O=C(CSC1=NCCS1)OCN1C(=O)c2ccccc2C1=O,inactive: 105%
18,COc1ccc(N2CCN(C(=O)c3c(C)oc4ncn(CC(C)C)c(=O)c34)CC2)cc1,inactive: 56%
19,COC(=O)c1ccc(NC(=O)C(C)N2Cc3ccccc3C2=O)cc1 (centres undefined),inactive: 53%
20,COc1ccc2c(=O)c(NC(=O)Nc3ccc(F)cc3F)c[nH]c2c1,inactive: 118%

row,SMILES,survival
1,CCn1cc(C(=O)N2CCN(c3ccccc3OC)CC2)c2cc(OC)c(OC)cc2c1=O,inactive: 70%
2,CCN1C(=O)C(C2SC(=S)N(CC)C2=O)SC1=S (centres undefined),inactive: 98%
3,Cc1cc(C)c2c(n1)sc1c(N3CCN(CCO)CC3)ncnc12,inactive: 111%
4,CCc1ccc(NC(=O)c2ccc(CNS(=O)(=O)c3ccc4c(c3)C(C)(C)C(=O)N4C)cc2)cc1,inactive: 83%
5,CCOc1cccc2sc(=NC(=O)c3ccc(S(=O)(=O)N4CCOCC4)cc3)n(C)c12,inactive: 83%
6,Nc1ccc(S(=O)(=O)N2CCCC(C(=O)O)C2)cc1 (centres undefined),inactive: 103%
7,CCC(Oc1ccccc1)C(=O)Nc1nnc(S(=O)(=O)N2CCCC2)s1 (centres undefined),inactive: 108%
8,CCc1ccc(OCC(=O)Nc2c(C(=O)c3ccc(Br)cc3)oc3ccccc23)cc1,inactive: 70%
9,CC(=O)N1CCN(CCN=CC2=C(O)CC(c3ccco3)CC2=O)CC1 (centres undefined),inactive: 101%
10,COc1ccc(CCNC(=O)CCCCn2c(=O)c3ccccc3n(Cc3cccc(C)c3)c2=O)cc1OC,inactive: 96%
11,CCOC(=O)c1c(NC(=O)C(C)Oc2ccccc2F)sc(C(C)=O)c1C (centres undefined),inactive: 65%
12,CCOc1ccc(CCNc2ncnc3onc(C)c23)cc1OCC,inactive: 83%
13,CCOC(=O)c1cnc2c(OC)cccc2c1N1CCN(c2ccccc2F)CC1,active: -14%
14,CCOc1ccccc1NC(=O)C1CCCN(C(=O)Nc2ccccc2)C1 (centres undefined),inactive: 107%
15,c1ccc(N=C(c2cccs2)N2CCOCC2)cc1,inactive: 107%
16,CCCCN(CCCC)CCn1cnc2c([nH]c3ccc(OC)cc32)c1=O,inactive: 120%
17,c1ccc2sc(N3CCN(Cc4nnnn4C4CCCC4)CC3)nc2c1,inactive: 104%
18,COc1ccc(NC(=O)c2oc3ccccc3c2NC(=O)c2cc(=O)c3ccccc3o2)cc1,inactive: 88%
19,COc1ccc(C(=O)Nc2ccc3c(c2)CCCN3S(=O)(=O)c2ccc(C)cc2)cc1,inactive: 88%
20,COc1ccc(CNC(=O)c2ccc(-c3nc(CSc4ccccc4)c(C)o3)cc2)cc1,inactive: 59%

row,SMILES,survival
1,O=C(Nc1ccccc1)NC1(C(=O)N2CCN(C(=O)c3ccco3)CC2)CCCCC1,inactive: 107%
2,CCc1ccc(-c2nc(CN3CCCC(C(=O)NCc4ccccc4Cl)C3)c(C)o2)cc1 (centres undefined),inactive: 55%
3,Cc1ccc2c(c1)-c1nc(-c3ccccc3)cc(-c3ccccc3)c1CO2,inactive: 79%
4,CCCN(CCC)S(=O)(=O)c1ccc(C(=O)N2CCC(=O)c3ccccc32)cc1,inactive: 109%
5,O=C(NCCc1csc(-c2cccc(F)c2)n1)c1ccco1,inactive: 69%
6,CCOc1ccc(N(CC)S(=O)(=O)N2CCCC(C(=O)NCc3ccccc3OCC)C2)cc1 (centres undefined),inactive: 96%
7,COc1cc(-c2cc3n(C)c(C)c(CCC(=O)NC4CCC(C)CC4)c(=O)n3n2)cc(OC)c1OC (centres undefined),inactive: 78%
8,Cc1nn2c(=O)cc(COC(=O)c3ccccc3NC(=O)C3CCCCC3)nc2s1,inactive: 102%
9,COc1ccc(CC(CC(=O)O)C(=O)NCc2ccccc2)cc1 (centres undefined),inactive: 114%
10,O=C(NC1CCCC1)c1ccc2c(c1)N(Cc1c(F)cccc1Cl)C(=O)c1ccccc1S2,inactive: 137%
11,COc1cc(C(=O)N(CCCN(C)C)c2nc3c(OC)cccc3s2)cc(OC)c1OC,inactive: 124%
12,O=C(CSc1nc2c([nH]c3ccccc32)c(=O)n1-c1ccccc1)Nc1ccccc1C(F)(F)F,inactive: 72%
13,NC(=O)COc1ccc(-c2noc(COc3ccc(Cl)cc3)n2)cc1,inactive: 144%
14,CCOC(=O)C1=C(CN2CCN(c3ccc(Cl)cc3)CC2)NC(=O)NC1c1ccc(F)cc1 (centres undefined),inactive: 65%
15,Cc1cc2ncn(S(=O)(=O)c3ccc(S(=O)(=O)NCC4CCCO4)cc3)c2cc1C (centres undefined),inactive: 103%
16,COc1cccc2c1Oc1ncccc1N(C(=O)CCC(=O)NCc1ccc(OC(C)C)cc1)C2,inactive: 84%
17,Cc1nn(CC(=O)NC(C)c2ccccc2)c(=O)c2cc3occc3n12 (centres undefined),inactive: 84%
18,NS(=O)(=O)c1ccc(CCNC(=O)Cn2c(=O)c3cccn3c3ccc(F)cc32)cc1,inactive: 91%
19,COc1ccc2c(c1)CC(C(=O)Nc1c(C)cc(C)cc1C)CO2 (centres undefined),inactive: 63%
